# Assay results reported in publication PMC4336329 (PLoS ONE, 2015).
# Hit rate of the full screen: of about 310,000 compounds, about 2,200 (0.71%) showed an effect of 50% or more. The effect is printed as a negative number. The list shows a part of the results.
# Biological target: human ether-à-go-go-related gene (hERG) potassium channel (human, UniProt Q12809)
# Test: primary screen, population patch clamp on CHO cells stably expressing hERG
# Chain of human ether-à-go-go-related gene (hERG) potassium channel (Q12809 whole entry, looked up): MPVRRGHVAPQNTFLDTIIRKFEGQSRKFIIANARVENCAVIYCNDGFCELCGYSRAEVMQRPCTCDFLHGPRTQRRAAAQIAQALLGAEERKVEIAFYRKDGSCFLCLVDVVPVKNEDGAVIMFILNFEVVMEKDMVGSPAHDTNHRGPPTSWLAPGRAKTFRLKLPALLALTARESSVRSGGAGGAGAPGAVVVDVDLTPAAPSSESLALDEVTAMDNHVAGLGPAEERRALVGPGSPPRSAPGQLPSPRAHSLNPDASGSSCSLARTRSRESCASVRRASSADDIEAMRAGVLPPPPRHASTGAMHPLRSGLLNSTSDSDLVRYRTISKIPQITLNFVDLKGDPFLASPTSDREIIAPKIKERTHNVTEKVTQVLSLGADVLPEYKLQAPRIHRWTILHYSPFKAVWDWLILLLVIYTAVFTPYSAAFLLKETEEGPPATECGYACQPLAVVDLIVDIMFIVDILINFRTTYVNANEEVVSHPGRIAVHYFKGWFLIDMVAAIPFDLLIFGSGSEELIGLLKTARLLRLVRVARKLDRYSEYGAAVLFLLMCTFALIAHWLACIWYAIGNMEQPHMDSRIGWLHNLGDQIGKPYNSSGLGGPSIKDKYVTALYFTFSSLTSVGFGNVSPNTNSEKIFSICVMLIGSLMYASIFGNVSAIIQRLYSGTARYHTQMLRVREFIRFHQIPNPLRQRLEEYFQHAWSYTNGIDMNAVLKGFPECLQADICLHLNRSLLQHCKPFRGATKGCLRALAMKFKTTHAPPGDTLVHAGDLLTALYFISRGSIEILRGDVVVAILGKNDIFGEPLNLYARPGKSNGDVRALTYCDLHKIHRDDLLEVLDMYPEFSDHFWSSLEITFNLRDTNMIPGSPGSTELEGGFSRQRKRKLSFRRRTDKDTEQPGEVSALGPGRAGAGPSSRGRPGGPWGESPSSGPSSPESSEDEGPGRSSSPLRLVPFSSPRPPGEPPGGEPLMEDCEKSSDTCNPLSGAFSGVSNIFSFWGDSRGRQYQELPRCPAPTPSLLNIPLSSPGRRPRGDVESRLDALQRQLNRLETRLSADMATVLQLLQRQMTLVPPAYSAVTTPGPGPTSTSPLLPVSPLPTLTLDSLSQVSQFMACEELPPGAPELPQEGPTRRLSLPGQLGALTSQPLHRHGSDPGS
row,SMILES,"hERG current change (%, negative = inhibition) at 1uM"
1,COc1cc(CN(C2CCCCC2C)S(=O)(=O)c2ccc(S(=O)(=O)NC3CC3)cc2)cc(OC)c1OC (stereo not drawn),-2.27%
2,Cc1cc(=O)[nH]c(N/N=C/c2ccc(-c3ccc([N+](=O)[O-])cc3)o2)n1,13.5%
3,O=c1[nH]c(SCc2ccccc2)nc2ccsc12,6.51%
4,Cc1cc(C)cc(NC(=S)NCC2CCCO2)c1 (stereo not drawn),7.64%
5,O=C(NNS(=O)(=O)c1ccccc1)c1ccccc1-n1cccc1,6.46%
6,CCN(/N=C/c1cccs1)c1cc(=O)n(C)c(=O)[nH]1,9.48%
7,Cc1ccc(-n2c(C)cc(C(=O)CN3CCOCC3)c2C)cc1,4.07%
8,CN(C)/C=C1\SC(=S)N(N2C(=O)C3C4C=CC(C4)C3C2=O)C1=O (stereo not drawn),4.34%
9,CCOc1cc(N2CCOCC2)c(OCC)cc1NC(=O)COC(=O)CCOc1ccc(C(C)(C)C)cc1,10.5%
10,OCC[C@H]1C[C@@H](O)[C@H](O)[C@]2(Cc3ccccc3CCO2)O1,5.45%
11,CN(c1ccc(OCC(=O)OCC(=O)Nc2ccccc2)cc1)S(=O)(=O)c1cccs1,4.04%
12,Cc1ccc(S(=O)(=O)NC2=NCCCCC2)cc1,10%
13,COc1ccc2c(c1)[nH]c1c(=O)n(Cc3ccncc3)cnc12,-9.33%
14,O=C(CCn1cnnn1)Nc1ccccc1F,5.19%
15,Cc1nonc1OCCN1CCN(c2ccccc2[N+](=O)[O-])CC1.Cl,-2.31%
16,CCOc1ccccc1NC(=O)C(OC(=O)c1ccc(O)cc1)c1ccccc1 (stereo not drawn),-1.45%
17,O=C(COc1ccccc1)Nc1ccc(OC(F)(F)C(F)F)c(NC(=O)COc2ccccc2)c1,5.54%
18,CN1CCN(c2ccc([N+](=O)[O-])cc2NC(=O)c2ccccc2Cl)CC1,-75.6%
19,O=C(NCC(=O)N(c1ccc(Cl)cc1)C(C(=O)NC1CCCC1)c1ccncc1)c1ccco1 (stereo not drawn),5.8%
20,COc1ccccc1NC(=S)N1CCN(c2ccc(F)cc2)CC1,8.76%
21,C/C(=N\NC(=O)c1cccc(Br)c1)c1cccc(NC(=O)c2ccc(C)o2)c1,2.01%
22,COc1ccc(-c2[nH]ncc2CN(Cc2nccn2C)C(C)C)c(F)c1,-6.67%

row,SMILES,"hERG current change (%, negative = inhibition) at 1uM"
1,Cc1cc([N+](=O)[O-])ccc1NC(=O)CCC(=O)N1CCCCC1,-3.85%
2,CC(C)(C)n1nc2c(c1NC(=O)c1cc([N+](=O)[O-])ccc1Cl)CS(=O)(=O)C2,14.4%
3,C/C=C/COc1nc2c(c(=O)n(C)c(=O)n2C)n1C,13.8%
4,CCOc1ccc(C(c2c(C)n(C)n(-c3ccccc3)c2=O)c2c(C)n(C)n(-c3ccccc3)c2=O)c(O)c1,20.3%
5,Cl.OCCN1CCN(CCOc2cccc(Cl)c2)CC1,1.81%
6,CCOc1ccc(C(=O)N2CCCCCC2)cc1,9.17%
7,O=C(c1ccc(COc2ccc(Cl)cc2)o1)N1CCN(Cc2ccc3c(c2)OCO3)CC1,7.98%
8,O=C(O)c1ccccc1CSc1nc2ccccc2[nH]1,13.2%
9,COc1ccc(CNC(=O)COC(=O)CCOc2ccccc2)cc1,11.2%
10,O=c1c2ccccc2nc(-c2ccc([N+](=O)[O-])cc2)n1O,9.22%
11,CCCc1cc(C(=O)NCc2ccccc2)no1,6.07%
12,COc1ccc(-c2[nH]c(-c3ccccc3)nc2SCC(=O)Nc2nccs2)cc1,-0.692%
13,O=C(/C=C/c1cccc(Cl)c1)NCCCN1CCOCC1,22.7%
14,Cc1cccc(-n2c(-c3csc4ccccc34)n[nH]c2=S)c1,1.64%
15,COc1ccc(C)cc1S(=O)(=O)NC1CCCC1,9.56%
16,COc1ccc(C(C)NC(=O)C2CCCC2)cc1 (stereo not drawn),11.5%
17,CN(C)/C=N/c1nc2nccc(-c3ccc(F)cc3)n2n1,13.1%
18,COc1ccc(CNC(=O)COC(=O)c2ccccc2OCC(=O)Nc2ccc(SC(F)F)cc2)cc1,3.83%
19,Cc1ccccc1Oc1nc2c(C)cccn2c(=O)c1/C=C(\C#N)C(=O)NC1CCS(=O)(=O)C1 (stereo not drawn),2.94%
20,CN(C)S(=O)(=O)c1ccc(C(=O)Nc2cccc(C(=O)N3CCOCC3)c2)cc1,9.08%
21,CCOC(=O)c1cc(C)n(S(=O)(=O)c2ccc(C)cc2)c1C,2.01%
22,COc1ccc(C2=[N+]([O-])C(C)(C)C(c3ccccc3)=N2)cc1,3.03%

row,SMILES,"hERG current change (%, negative = inhibition) at 1uM"
1,NC(=O)c1cc(Br)cc(C2CCCCC2)c1O,15.2%
2,COc1ccc(C(=O)N(c2ccc(OC)cc2)S(=O)(=O)c2cccs2)cc1,13.5%
3,CC1CCCC(NC(=O)c2ccc3c(c2)OCO3)C1C (stereo not drawn),8.11%
4,COc1cc(C(=O)N2CCC(NC(=O)C(Cc3ccccc3)NC(C)=O)CC2)cc(OC)c1OC (stereo not drawn),-8.85%
5,CN(C)/C=C/C(=O)c1ccc([N+](=O)[O-])c(CS(=O)(=O)c2ccc(Cl)cc2)c1,-10.9%
6,COc1ccc(NC(=S)N(CCCN2CCOCC2)C(C)c2cc3cccc(OC)c3o2)cc1 (stereo not drawn),3.7%
7,Cc1ccc(C(=O)COc2ccccc2N2C(=O)c3ccccc3C2=O)cc1,8.44%
8,Cc1ccccc1C(=O)NC(=S)Nc1sc2c(c1C#N)CCCC2,-3.13%
9,NC(=O)C1CCN(C(=O)CC2(CC(=O)O)CCCC2)CC1,20.6%
10,COC(=O)c1cccc(NC(=O)Cn2cnc3ccccc3c2=O)c1,10.4%
11,O=C(CN1CCN(Cc2ccccc2)CC1)NC(=O)NC1CCCCC1,-16.1%
12,c1cncc(Cc2cc3ccccc3[nH]2)c1,2.84%
13,COc1cccc(C(=O)Nc2ccncc2)c1,10.6%
14,Cc1ccc(-c2nnc(SCc3nc4ccccc4[nH]3)n2Cc2ccco2)cc1,1.29%
15,Cc1ccc(N2CC(C(=O)Nc3nc4ccc(S(C)(=O)=O)cc4s3)CC2=O)cc1 (stereo not drawn),1.3%
16,CCS(=O)(=O)n1nc(-c2cccnc2)nc1NCc1ccc(F)cc1,5.95%
17,CCOC(=O)c1c(NC(=O)CSc2cccc[n+]2[O-])sc(C(=O)Nc2ccccc2)c1C,9.46%
18,CCC(=O)NC(c1ccc(C)cc1)c1ccc2cccnc2c1O (stereo not drawn),12.9%
19,COc1ccccc1OCC(=O)NCCSCc1ccccc1Cl,12.4%
20,COc1ccccc1NS(=O)(=O)c1cc(C(=O)NCC(c2ccc(F)cc2)N2CCOCC2)ccc1C (stereo not drawn),11.2%
21,COC(=O)c1c(NC(C)=O)sc2c1CCN(Cc1ccccc1)C2.Cl,9.96%
22,N#CC(C#N)=Cc1ccc(-c2ccccc2F)o1,11.4%

row,SMILES,"hERG current change (%, negative = inhibition) at 1uM"
1,Cc1cc(-c2ccccc2)nc(SCC(=O)N2CCCC2)n1,6.86%
2,S=c1[nH]nc(C2CCCCC2)n1/N=C/c1ccccc1Br,14.2%
3,Cc1nn2c(N)c(C#N)cnc2c1-c1ccc(Cl)cc1,4.37%
4,O=C(NCCCO)c1cc2c([nH]c3ccccc32)c(-c2ccccc2)n1,10.4%
5,COc1ccc(NC(=O)NC2CCCCCCC2)c(OC)c1,9.77%
6,O=[N+]([O-])c1cccc(/C=N/Nc2nc(N3CCOCC3)nc(N3CCOCC3)n2)c1,6.07%
7,CCCOc1ccc(N2C(=O)C3ON(c4ccccc4)C(c4ccc(O)c(OC)c4)C3C2=O)cc1 (stereo not drawn),7.71%
8,Cc1ccccc1NS(=O)(=O)c1ccc(NC(=O)CSCc2ccc(Br)cc2)cc1,15.9%
9,N#Cc1ccccc1OCC(=O)N1CCN(C(=O)c2ccco2)CC1,12.8%
10,O=C(NCC1CCCO1)C1CCN(S(=O)(=O)c2cccc3cccnc23)CC1 (stereo not drawn),12.3%
11,Cc1cc2ccccc2n1CCNC(=O)C(C)Oc1ccccc1 (stereo not drawn),9.73%
12,O=C(Cn1nc(C(=O)O)c2ccccc2c1=O)Nc1cc(Cl)cc(Cl)c1,16.2%
13,O=c1[nH][nH]c(-c2ccccc2)c1C=Nc1ccc(C(F)(F)F)cc1,13.5%
14,CC(Sc1nc(-c2ccccc2)cc(C(F)(F)F)n1)C(=O)NCc1ccco1 (stereo not drawn),4.96%
15,NS(=O)(=O)c1cnccc1Oc1cccc(Cl)c1,15.6%
16,O=C(CCCC(=O)Nc1ccc(Br)cc1)N/N=C/c1ccccc1,10.6%
17,O=C(Nc1ccc(-c2nc3ccccc3[nH]2)cc1)c1cccc(N2C(=O)CCC2=O)c1,5.42%
18,O=C(NCCN1CCN(C(=O)C(c2ccccc2)c2ccccc2)CC1)C(=O)Nc1ccccc1,8.21%
19,NC(=O)c1c(NC(=O)CSc2nnc(-c3ccco3)n2N)sc2c1CCCC2,13.8%
20,CCNS(=O)(=O)c1cccc(C(=O)c2c(C)cc3ccccn23)c1,22.7%
21,Cc1ccc(S(=O)(=O)Cc2csc(N)n2)cc1,14.2%
